# Measurements as given in the supplement of paper PMC8728848.
# This is one part of the list.
# B1: LICBM33A (Lactococcus lactis), Q9CE94 (protein)
# chain: MKKLLTGLLVAAGLLSVSLLIKTDTVSAHGYVQSPPARGYQGQLDSQSLGWTAAFNIYGNVISNPQSLEAPKGFPECGPADGRIASANGGLGQIGDFVLDNQTSSRWKKTSISTGSNIFTWKYTAPHKTTKWHYYMTKTGWDQNAPLKHSELELIGTINHDGSPATNNLSHTINIPTDRSGYHIVLAVWDVADTSNAFYNVIDINVNNKNASSQVFGPFL
# Tests used:
# Test in all cases: glycan array binding signal (z-score within array); higher = stronger binding
# Settings in all cases: glycan notation: IUPAC condensed, linker removed
# [1] = biological target: Fuc(a1-2)[Gal(a1-3)]Gal(b1-4)GlcNAc(b1-2)Man(a1-3)[Fuc(a1-2)[Gal(a1-3)]Gal(b1-4)GlcNAc(b1-2)Man(a1-6)]Man(b1-4)GlcNAc(b1-4)GlcNAc
# Outline: (§1)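 Glycan array data came from 3228 arrays in the Consortium for Functional Glycomics database, and only arrays with an available protein sequence were kept. Glycan names were put into IUPAC-condensed notation, and columns mapping to the same glycan were averaged. The binding signal is a within-array Z-score, averaged across arrays of one protein sequence run at different concentrations or buffers and across linkers. A negative Z-score can be read as non-binding.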
# [2] = biological target: Fuc(a1-2)[Gal(a1-3)]Gal(b1-4)GlcNAc(b1-2)Man(a1-3)[Fuc(a1-2)[Gal(a1-3)]Gal(b1-4)GlcNAc(b1-2)Man(a1-6)]Man(b1-4)GlcNAc(b1-4)[Fuc(a1-6)]GlcNAc
# Outline: as §1
# [3] = biological target: Fuc(a1-2)[Gal(a1-3)]Gal(b1-4)GlcNAc(b1-3)GalNAc
# Outline: as §1
# [4] = biological target: Fuc(a1-2)[Gal(a1-3)]Gal(b1-4)GlcNAc(b1-3)[Fuc(a1-2)[Gal(a1-3)]Gal(b1-4)GlcNAc(b1-6)]GalNAc
# Outline: as §1
# [5] = biological target: Fuc(a1-2)[Gal(a1-3)]Gal(b1-4)GlcNAc(b1-6)GalNAc
# Outline: as §1
# [6] = biological target: Fuc(a1-2)[Gal(a1-3)]Gal(b1-4)[Fuc(a1-3)]Glc
# Outline: as §1
# [7] = biological target: Fuc(a1-2)[Gal(a1-3)]Gal(b1-4)[Fuc(a1-3)]GlcNAc
# Outline: as §1
# [8] = biological target: Fuc(a1-2)[Gal(a1-3)]Gal(b1-4)[Fuc(a1-3)]GlcNAc(b1-3)GalNAc
# Outline: as §1
# [9] = biological target: Fuc(a1-2)[Gal(a1-4)]Gal(b1-4)GlcNAc
# Outline: as §1
# [10] = biological target: Fuc(a1-2)[GalNAc(a1-3)]Gal
# Outline: as §1
# [11] = biological target: Fuc(a1-2)[GalNAc(a1-3)]Gal(b1-3)GalNAc(a1-3)[Fuc(a1-2)]Gal(b1-4)GlcNAc
# Outline: as §1
# [12] = biological target: Fuc(a1-2)[GalNAc(a1-3)]Gal(b1-3)GalNAc(b1-3)Gal(a1-4)Gal(b1-4)Glc
# Outline: as §1
# [13] = biological target: Fuc(a1-2)[GalNAc(a1-3)]Gal(b1-3)GlcNAc
# Outline: as §1
# [14] = biological target: Fuc(a1-2)[GalNAc(a1-3)]Gal(b1-3)GlcNAc(b1-2)Man(a1-3)[Fuc(a1-2)[GalNAc(a1-3)]Gal(b1-3)GlcNAc(b1-2)Man(a1-6)]Man(b1-4)GlcNAc(b1-4)GlcNAc
# Outline: as §1
# [15] = biological target: Fuc(a1-2)[GalNAc(a1-3)]Gal(b1-3)GlcNAc(b1-2)Man(a1-3)[Fuc(a1-2)[GalNAc(a1-3)]Gal(b1-3)GlcNAc(b1-2)Man(a1-6)]Man(b1-4)GlcNAc(b1-4)[Fuc(a1-6)]GlcNAc
# Outline: as §1
# [16] = biological target: Fuc(a1-2)[GalNAc(a1-3)]Gal(b1-3)GlcNAc(b1-3)GalNAc
# Outline: as §1
# [17] = biological target: Fuc(a1-2)[GalNAc(a1-3)]Gal(b1-3)GlcNAc(b1-6)GalNAc
# Outline: as §1
# [18] = biological target: Fuc(a1-2)[GalNAc(a1-3)]Gal(b1-4)Glc
# Outline: as §1
# [19] = biological target: Fuc(a1-2)[GalNAc(a1-3)]Gal(b1-4)GlcNAc
# Outline: as §1
# [20] = biological target: Fuc(a1-2)[GalNAc(a1-3)]Gal(b1-4)GlcNAc(b1-2)Man
# Outline: as §1
# [21] = biological target: Fuc(a1-2)[GalNAc(a1-3)]Gal(b1-4)GlcNAc(b1-2)Man(a1-3)[Fuc(a1-2)[GalNAc(a1-3)]Gal(b1-4)GlcNAc(b1-2)Man(a1-6)]Man(b1-4)GlcNAc(b1-4)GlcNAc
# Outline: as §1
# [22] = biological target: Fuc(a1-2)[GalNAc(a1-3)]Gal(b1-4)GlcNAc(b1-2)Man(a1-3)[Fuc(a1-2)[GalNAc(a1-3)]Gal(b1-4)GlcNAc(b1-2)Man(a1-6)]Man(b1-4)GlcNAc(b1-4)[Fuc(a1-6)]GlcNAc
# Outline: as §1
# [23] = biological target: Fuc(a1-2)[GalNAc(a1-3)]Gal(b1-4)GlcNAc(b1-3)Gal(b1-4)GlcNAc
# Outline: as §1
# [24] = biological target: Fuc(a1-2)[GalNAc(a1-3)]Gal(b1-4)GlcNAc(b1-3)Gal(b1-4)GlcNAc(b1-3)Gal(b1-4)GlcNAc
# Outline: as §1
# [25] = biological target: Fuc(a1-2)[GalNAc(a1-3)]Gal(b1-4)GlcNAc(b1-3)GalNAc
# Outline: as §1
# [26] = biological target: Fuc(a1-2)[GalNAc(a1-3)]Gal(b1-4)GlcNAc(b1-3)[Fuc(a1-2)[GalNAc(a1-3)]Gal(b1-4)GlcNAc(b1-6)]GalNAc
# Outline: as §1
# [27] = biological target: Fuc(a1-2)[GalNAc(a1-3)]Gal(b1-4)GlcNAc(b1-6)GalNAc
# Outline: as §1
# [28] = biological target: Fuc(a1-2)[GalNAc(a1-3)]Gal(b1-4)[Fuc(a1-3)]GlcNAc
# Outline: as §1
# [29] = biological target: Fuc(a1-2)[GalNAc(a1-3)]Gal(b1-4)[Fuc(a1-3)]GlcNAc(b1-3)GalNAc
# Outline: as §1
# [30] = biological target: Fuc(a1-2)[GalNAc(a1-4)]Gal(b1-4)GlcNAc
# Outline: as §1
# [31] = biological target: Fuc(a1-2)[GalNAc(b1-3)]Gal
# Outline: as §1
# Fuc(a1-3)GlcNAc = biological target: Fuc(a1-3)GlcNAc
# Outline: as §1
# [32] = biological target: Fuc(a1-3)[Gal(b1-4)]Glc6S
# Outline: as §1
# [33] = biological target: Fuc(a1-3)[Gal(b1-4)]GlcNAc
# Outline: as §1
# [34] = biological target: Fuc(a1-3)[Gal(b1-4)]GlcNAc(b1-2)Man
# Outline: as §1
# [35] = biological target: Fuc(a1-3)[Gal(b1-4)]GlcNAc(b1-2)Man(a1-3)[Fuc(a1-3)[Gal(b1-4)]GlcNAc(b1-2)Man(a1-6)]Man(b1-4)GlcNAc(b1-4)GlcNAc
# Outline: as §1
# [36] = biological target: Fuc(a1-3)[Gal(b1-4)]GlcNAc(b1-2)Man(a1-3)[Fuc(a1-3)[Gal(b1-4)]GlcNAc(b1-2)Man(a1-6)]Man(b1-4)GlcNAc(b1-4)[Fuc(a1-6)]GlcNAc
# Outline: as §1
# [37] = biological target: Fuc(a1-3)[Gal(b1-4)]GlcNAc(b1-3)Gal(b1-3)[Fuc(a1-4)]GlcNAc
# Outline: as §1
# [38] = biological target: Fuc(a1-3)[Gal(b1-4)]GlcNAc(b1-3)Gal(b1-4)[Fuc(a1-3)]GlcNAc
# Outline: as §1
# [39] = biological target: Fuc(a1-3)[Gal(b1-4)]GlcNAc(b1-3)Gal(b1-4)[Fuc(a1-3)]GlcNAc(b1-3)Gal(b1-4)[Fuc(a1-3)]GlcNAc
# Outline: as §1
# [40] = biological target: Fuc(a1-3)[Gal(b1-4)]GlcNAc(b1-3)GalNAc
# Outline: as §1
# [41] = biological target: Fuc(a1-3)[Gal(b1-4)]GlcNAc(b1-6)GalNAc
# Outline: as §1
# [42] = biological target: Fuc(a1-3)[Gal(b1-4)]GlcNAc(b1-6)[Gal(b1-3)GlcNAc(b1-3)]Gal(b1-4)Glc
# Outline: as §1
# [43] = biological target: Fuc(a1-3)[Gal(b1-4)]GlcNAc6S
# Outline: as §1
# [44] = biological target: Fuc(a1-3)[Gal3S(b1-4)]Glc
# Outline: as §1
binder,measurement,setting,value
B1,glycan array binding signal (z-score),[1],-0.401
same,glycan array binding signal (z-score),[2],0.05
same,glycan array binding signal (z-score),[3],-0.57
same,glycan array binding signal (z-score),[4],-0.026
same,glycan array binding signal (z-score),[5],0.076
same,glycan array binding signal (z-score),[6],-0.107
same,glycan array binding signal (z-score),[7],-0.909
same,glycan array binding signal (z-score),[8],-1.52
same,glycan array binding signal (z-score),[9],-0.212
same,glycan array binding signal (z-score),[10],-0.183
same,glycan array binding signal (z-score),[11],-0.585
same,glycan array binding signal (z-score),[12],-0.512
same,glycan array binding signal (z-score),[13],-0.295
same,glycan array binding signal (z-score),[14],-0.264
same,glycan array binding signal (z-score),[15],-0.211
same,glycan array binding signal (z-score),[16],-0.433
same,glycan array binding signal (z-score),[17],-0.701
same,glycan array binding signal (z-score),[18],-0.171
same,glycan array binding signal (z-score),[19],-0.259
same,glycan array binding signal (z-score),[20],-0.298
same,glycan array binding signal (z-score),[21],-0.686
same,glycan array binding signal (z-score),[22],-0.265
same,glycan array binding signal (z-score),[23],0.34
same,glycan array binding signal (z-score),[24],-0.394
same,glycan array binding signal (z-score),[25],-0.617
same,glycan array binding signal (z-score),[26],0.513
same,glycan array binding signal (z-score),[27],-0.17
same,glycan array binding signal (z-score),[28],0.106
same,glycan array binding signal (z-score),[29],0.403
same,glycan array binding signal (z-score),[30],-0.035
same,glycan array binding signal (z-score),[31],-0.401
same,glycan array binding signal (z-score),Fuc(a1-3)GlcNAc,-0.493
same,glycan array binding signal (z-score),[32],1.01
same,glycan array binding signal (z-score),[33],-0.685
same,glycan array binding signal (z-score),[34],-0.118
same,glycan array binding signal (z-score),[35],1.65
same,glycan array binding signal (z-score),[36],-0.76
same,glycan array binding signal (z-score),[37],-0.369
same,glycan array binding signal (z-score),[38],-1.02
same,glycan array binding signal (z-score),[39],-0.442
same,glycan array binding signal (z-score),[40],0.32
same,glycan array binding signal (z-score),[41],1.73
same,glycan array binding signal (z-score),[42],-0.329
same,glycan array binding signal (z-score),[43],-0.073
same,glycan array binding signal (z-score),[44],-0.544
